Measured values from PMC4336329 (PLoS ONE, 2015).
In all, about 310,000 compounds went through this assay and about 2,200 (0.71%) showed an effect of 50% or more. The effect is printed as a negative number. Some of the results follow.

target: human ether-à-go-go-related gene (hERG) potassium channel (human, UniProt Q12809); test: primary screen, population patch clamp on CHO cells stably expressing hERG
Sequence (Q12809 whole entry, looked up): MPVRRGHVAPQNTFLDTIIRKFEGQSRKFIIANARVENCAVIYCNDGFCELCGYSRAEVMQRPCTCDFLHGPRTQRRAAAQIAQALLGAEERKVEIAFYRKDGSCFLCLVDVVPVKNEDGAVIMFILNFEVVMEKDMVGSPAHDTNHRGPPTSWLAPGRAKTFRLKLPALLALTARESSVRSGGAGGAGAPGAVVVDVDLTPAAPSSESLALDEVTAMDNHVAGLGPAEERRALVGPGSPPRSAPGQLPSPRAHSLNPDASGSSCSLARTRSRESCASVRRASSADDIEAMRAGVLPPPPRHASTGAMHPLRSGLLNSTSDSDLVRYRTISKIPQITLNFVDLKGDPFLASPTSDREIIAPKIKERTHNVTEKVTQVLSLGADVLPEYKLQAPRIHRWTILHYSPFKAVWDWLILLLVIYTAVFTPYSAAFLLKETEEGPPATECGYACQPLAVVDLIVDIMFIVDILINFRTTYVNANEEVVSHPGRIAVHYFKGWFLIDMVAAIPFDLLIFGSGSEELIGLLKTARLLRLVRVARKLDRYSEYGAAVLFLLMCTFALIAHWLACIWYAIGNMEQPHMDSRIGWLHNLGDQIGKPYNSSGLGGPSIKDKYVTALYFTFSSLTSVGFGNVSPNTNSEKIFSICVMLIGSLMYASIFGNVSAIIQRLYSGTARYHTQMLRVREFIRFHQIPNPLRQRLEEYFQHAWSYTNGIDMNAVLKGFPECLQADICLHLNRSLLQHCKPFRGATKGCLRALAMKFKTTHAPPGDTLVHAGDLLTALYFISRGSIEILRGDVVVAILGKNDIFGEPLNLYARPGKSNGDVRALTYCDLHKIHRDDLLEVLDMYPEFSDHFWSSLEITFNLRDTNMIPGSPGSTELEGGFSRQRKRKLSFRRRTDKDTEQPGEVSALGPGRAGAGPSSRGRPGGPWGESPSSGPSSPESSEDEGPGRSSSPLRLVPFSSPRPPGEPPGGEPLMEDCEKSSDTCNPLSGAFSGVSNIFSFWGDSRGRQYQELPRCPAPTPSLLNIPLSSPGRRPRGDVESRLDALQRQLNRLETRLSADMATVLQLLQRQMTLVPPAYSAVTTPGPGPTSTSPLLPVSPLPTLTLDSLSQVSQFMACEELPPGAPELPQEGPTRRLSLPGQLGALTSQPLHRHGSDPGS

SMILES | hERG current change (%, negative = inhibition) at 1uM [%]
CSc1oc(-c2ccccc2)nc1S(=O)(=O)c1ccc(C)cc1 | 3.2
O=C(NNC(=O)c1ccc(Br)o1)c1ccc(NC(=O)c2ccccc2)cc1 | 20
CCCNC(=O)C(=O)Nc1ccc(N(C)C)cc1 | 13.8
CCC(C)N=Cc1c(Nc2ccccc2)nc2c(C)cccn2c1=O (centres unmarked) | 5.51
Cc1ccc(-n2c(Cc3ccccc3)n[nH]c2=S)cc1 | 12.8
COC(=O)C1Cc2c([nH]c3ccccc23)C(C(C)C)N1 (centres unmarked) | 2.04
O=S(=O)(NCCOCC(F)(F)C(F)F)c1ccc2oc3ccccc3c2c1 | 7.24
O=C(OCc1nc2ccccc2[n+]([O-])c1C(=O)c1ccccc1)c1cccnc1 | 8.38
CCOc1cc(C(N)=O)cc(Br)c1OCC | 0.247
Cn1nnc(NC(=S)NC(=O)c2ccc(-c3ccc(Br)cc3)o2)n1 | 7.46
Cc1ccc(SCC(=O)OCC(=O)NCc2cccs2)cc1C | 6.86
CCS(=O)(=O)N1Cc2ccccc2CC1C(=O)Nc1ccc(OC)c(OC)c1 (centres unmarked) | 6.71
c1ccc(COCCN2CCN(CCOCc3ccccc3)CC2)cc1 | -19.6
CCN(CC)CCN(Cc1cc2cc3c(cc2[nH]c1=O)OCCO3)C(=S)NCCCOC | 10.9
CSCCC1NC(=O)N(CC(=O)Nc2c(Cl)cc(Cl)cc2Cl)C1=O (centres unmarked) | 5.22
CC(Cl)C(=O)c1c(N)n(C)c(=O)n(C)c1=O (centres unmarked) | -0.109
C=C(C)C1CC=C(C)/C(=N/NC(=O)CNc2ccc(OCC)cc2)C1 (centres unmarked) | 4.56
Cc1nc2ncnn2c(N2CCN(C(=O)c3cccc(F)c3)CC2)c1C | -23.1
COc1ccccc1N(CC(=O)Nc1ccc(S(=O)(=O)N2CCCCC2)cc1)S(C)(=O)=O | 14.5
O=C(O)c1ccccc1C(=O)Nc1ccc(-n2nccc2C(F)(F)F)cc1 | 13.2
COC(=O)c1ccc(NC(=O)Nc2ccc(OC)c(OC)c2)cc1 | 11.1
CCOC(=O)C1=NN(C(C)=O)C2(CC(=O)N(c3cccc(C)c3)C2=O)C1 (centres unmarked) | 15.6
O=C(NCC(=O)N1CCN(C(=O)c2ccco2)CC1)c1ccccc1 | -0.437

SMILES | hERG current change (%, negative = inhibition) at 1uM [%]
CC(=O)c1c(N2CCOCC2)nc2ccc(Br)cc2c1-c1ccccc1 | 5.75
Nc1nc(=S)[nH]c2c1C1(CCCC1)Cc1ccccc1-2 | 9.51
CC1CC(C)CN(C(=O)COC(=O)CNS(=O)(=O)/C=C/c2ccccc2)C1 (centres unmarked) | -1.21
NC(=O)c1ccccc1NCC(=O)c1ccc(Cl)cc1 | 11.2
Cn1c(SCC(=O)NNC(=S)Nc2ccccc2)nnc1-c1ccncc1 | 10.8
O=C1/C(=C/c2cccnc2)CC/C1=C\c1cccnc1 | 1.87
CCOC(=O)C1CCN(S(=O)(=O)c2cccc(-c3csc(C)n3)c2)CC1 | 1.48
Br.Cc1ccc(SCc2cn3c(C)csc3n2)cc1 | 10.3
O=C(CCN1C(=O)c2cccnc2C1=O)NC1CCCCCC1 | 8.2
CC(C)=C(NC(=O)c1ccccc1)C(=O)NCCCC(=O)O | 12.4
CCOC(=O)c1ccc(COC(=O)CCc2nc(-c3ccccc3)c(-c3ccccc3)o2)cc1 | -3.73
COc1ccc(C(CC(=O)O)NC(=O)Cc2ccccc2)cc1 (centres unmarked) | 6.67
CSc1cccc(NC(=O)Cc2ccccc2[N+](=O)[O-])c1 | 11.6
COc1ccccc1/C=C1\SC(=S)N(CCC(=O)N2CCCCC2CCO)C1=O (centres unmarked) | 12.4
Cc1ccc2oc(-c3ccc(NC(=O)c4ccc5c(c4)OCO5)cc3)nc2c1 | 13
COc1ccc(C(=O)CCC(C)(C)[N+](=O)[O-])cc1 | 13.3
CCCCN(c1nc2ccccc2nc1Cl)S(=O)(=O)c1ccc(C)cc1 | 16.2
COc1ccccc1C(=O)NC1CCN(C(=O)Nc2ccc(F)cc2)CC1 | 4.21
COc1ccc(Br)cc1S(=O)(=O)N1CC(C)OC(C)C1 (centres unmarked) | 6.83
O=C(CN1CCN(CCOCCO)CC1)N1c2ccccc2Sc2ccc(Cl)cc21 | 0.749
Cc1c(NC(=O)CSc2nc(-c3ccco3)cc(C(F)(F)F)n2)c(=O)n(-c2ccccc2)n1C | -6.87
COc1cccc(N=Cc2ccc(O)cc2O)c1 | 13.4
N#CC1=C(N)NC(SCc2ccccc2)=C(C#N)C12CCCCC2 | 14.7

SMILES | hERG current change (%, negative = inhibition) at 1uM [%]
CC(C)C(=O)c1cc2c(cc1NC(=O)c1cccs1)OCCO2 | 5.69
COc1ccc(NC2=CC(=O)CC(c3ccccc3)C2)c(OC)c1 (centres unmarked) | 10.3
CCOC(=O)c1ccc(NC(=O)C(C)N2C(=O)c3ccccc3C2=O)cc1 (centres unmarked) | 13
CCOC(=O)C1CCCN(C(=O)/C(=C/c2ccco2)NC(=O)c2ccccc2)C1 (centres unmarked) | 7.34
O=c1[nH]c(=O)n(Cc2ccco2)c2c1C(C(F)(F)F)(C(F)(F)F)N=C(Cc1ccccc1)N2 | 6.17
CN(Cc1ccccc1)C(=O)CN1CCN(S(=O)(=O)c2ccc(Cl)c(Cl)c2)CC1 | 19.7
O=C(COc1ccc(S(=O)(=O)N2CCCC2)cc1Cl)Nc1ccc2c(c1)OCO2 | 7.77
CCOc1cc(Br)c(C(=O)O)cc1OC | -0.372
Nc1ncnc(Nc2ccc(F)c(Cl)c2)n1 | 12.8
COc1cccc(CN(C)C(c2ccccc2)c2ccccc2)c1OC | 8.17
CCN(CC1COc2ccccc2O1)S(=O)(=O)c1ccc(C)cc1 (centres unmarked) | 7.11
CCN(CC)C(=O)C(=O)c1cccn1-c1cccc(OC)c1C#N | 12.4
CNc1nc(C)c(C#N)c(-c2ccccc2)c1C(C)=O | -3.15
Cc1sc2ncnc(N(C)CCc3ccccn3)c2c1C.O=C(O)C(=O)O | 18.8
C/C=C(/C)C(=O)Nc1cccc(C2=NOC3(C2)C[C@@H](C(N)=O)N(C(=O)/C=C/CC)C3)c1 (some centres unmarked) | 14.8
O=C(O)C1=C[C@H](c2ccccc2)C[C@H](OCCCCO)O1 | 13.9
COc1ccc(N=C2O/C(=C/c3sc(=S)n(CC4CCCO4)c3O)N=C2C#N)cc1 (centres unmarked) | 11.8
CC(C)CN(Cc1c(O)ccc2ccccc12)CC(C)C | 18
Cc1nc(Cl)c(N=Cc2cccc([N+](=O)[O-])c2)c(Cl)n1 | 18.3
c1ccc2c(c1)Nc1cc3ccccc3cc1S2 | 14
Cc1ccc(C)c(S(=O)(=O)N2CCCCC2CCNC(=O)C(=O)NC2CCCC2)c1 (centres unmarked) | 0.948
CCc1nc(NCCCCCO)c2nnn(Cc3ccccc3F)c2n1 | 0.555
CC(=O)c1c(OC(=O)c2ccc(C)cc2)c2ccccc2n1C | 12.8

SMILES | hERG current change (%, negative = inhibition) at 1uM [%]
CC(C)CN1C(=O)c2ccc(C(=O)Nc3ccc(OCC(=O)O)cc3)cc2C1=O | 8.65
CCOc1ccc(CNC(=S)N/N=C/c2ccncc2)cc1 | 4.46
CC(=O)Nc1ccc(C(=O)CSc2nnc(-c3ccc(O)cc3)n2CC2CCCO2)cc1 (centres unmarked) | 10.9
CC1=NN2C(=N)/C(=C\c3ccc(SCc4ccccc4)o3)C(=O)N=C2S1 | 1.92
COc1ccc(OC)c(-c2csc(NC(=O)COC(=O)C3(C)CC3(Cl)Cl)n2)c1 (centres unmarked) | -2.16
NC(=O)c1c(-c2ccc(Cl)cc2Cl)csc1NC(=O)Cc1ccccc1 | 7.98
O=C(Nc1cccc(C(F)(F)F)c1)C1CCCN(c2ncccn2)C1 (centres unmarked) | -1.28
COc1cccc(OC(=O)CSc2nnc(-c3ccccc3Br)o2)c1 | 6.82
Cc1ccc(CNC(=O)Cn2c(=O)oc3ccccc32)o1 | 3.37
O=C(COC(=O)Cn1cnc2ccccc21)Nc1cccc(S(=O)(=O)N2CCOCC2)c1 | 12.6
O=C(COC(=O)CC(c1ccccc1)c1ccccc1)Nc1cccc(F)c1 | 18.5
O=C(Nc1nnc(COc2ccc(Cl)cc2)s1)c1ccc([N+](=O)[O-])cc1 | 4.14
C=CCNc1sc(C(=O)c2ccc(C)cc2)c(N)c1C#N | 6.47
O=C1CCC([N+](=O)[O-])C(C2CC=CCC2)N1 (centres unmarked) | 14.6
NS(=O)(=O)c1ccc(CNC(=O)CCC2CCCCC2)cc1 | 6.44
Cc1ccc(NC(=O)CSc2nc(O)c(Cc3ccccc3)c(=O)n2-c2ccccc2)cc1 | 17.9
COC(=O)c1cn(C(=O)c2ccc(F)cc2)c2ccccc12 | 16.4
CC1CCCCC1NS(=O)(=O)c1ccc(S(=O)(=O)N2CCN(CCC#N)CC2)cc1 (centres unmarked) | -3.14
CCS(=O)(=O)N1Cc2ccccc2CC1C(=O)N(C)Cc1ccc(OC)c(F)c1 (centres unmarked) | 17.6
C[C@]12CC[C@H]3[C@@H](CC[C@]4(O)C[C@@H](O)CC[C@]34C=O)[C@@]1(O)CC[C@@H]2C1=CC(=O)OC1 | 14
